{"source": "paper PMC4336329", "about": "(PLoS ONE, 2015)", "note": "The whole screen tested about 310,000 compounds, of which about 14,000 (4.5%) showed an effect of 50% or more. Effects have a minus sign here. The list shows a part of the results.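 Note: peak tail current of the secondary pulse compared with the same well before compound.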", "data": [{"biological_target": "human ether-à-go-go-related gene (hERG) potassium channel (human, UniProt Q12809)", "sequence (Q12809 whole entry, looked up)": "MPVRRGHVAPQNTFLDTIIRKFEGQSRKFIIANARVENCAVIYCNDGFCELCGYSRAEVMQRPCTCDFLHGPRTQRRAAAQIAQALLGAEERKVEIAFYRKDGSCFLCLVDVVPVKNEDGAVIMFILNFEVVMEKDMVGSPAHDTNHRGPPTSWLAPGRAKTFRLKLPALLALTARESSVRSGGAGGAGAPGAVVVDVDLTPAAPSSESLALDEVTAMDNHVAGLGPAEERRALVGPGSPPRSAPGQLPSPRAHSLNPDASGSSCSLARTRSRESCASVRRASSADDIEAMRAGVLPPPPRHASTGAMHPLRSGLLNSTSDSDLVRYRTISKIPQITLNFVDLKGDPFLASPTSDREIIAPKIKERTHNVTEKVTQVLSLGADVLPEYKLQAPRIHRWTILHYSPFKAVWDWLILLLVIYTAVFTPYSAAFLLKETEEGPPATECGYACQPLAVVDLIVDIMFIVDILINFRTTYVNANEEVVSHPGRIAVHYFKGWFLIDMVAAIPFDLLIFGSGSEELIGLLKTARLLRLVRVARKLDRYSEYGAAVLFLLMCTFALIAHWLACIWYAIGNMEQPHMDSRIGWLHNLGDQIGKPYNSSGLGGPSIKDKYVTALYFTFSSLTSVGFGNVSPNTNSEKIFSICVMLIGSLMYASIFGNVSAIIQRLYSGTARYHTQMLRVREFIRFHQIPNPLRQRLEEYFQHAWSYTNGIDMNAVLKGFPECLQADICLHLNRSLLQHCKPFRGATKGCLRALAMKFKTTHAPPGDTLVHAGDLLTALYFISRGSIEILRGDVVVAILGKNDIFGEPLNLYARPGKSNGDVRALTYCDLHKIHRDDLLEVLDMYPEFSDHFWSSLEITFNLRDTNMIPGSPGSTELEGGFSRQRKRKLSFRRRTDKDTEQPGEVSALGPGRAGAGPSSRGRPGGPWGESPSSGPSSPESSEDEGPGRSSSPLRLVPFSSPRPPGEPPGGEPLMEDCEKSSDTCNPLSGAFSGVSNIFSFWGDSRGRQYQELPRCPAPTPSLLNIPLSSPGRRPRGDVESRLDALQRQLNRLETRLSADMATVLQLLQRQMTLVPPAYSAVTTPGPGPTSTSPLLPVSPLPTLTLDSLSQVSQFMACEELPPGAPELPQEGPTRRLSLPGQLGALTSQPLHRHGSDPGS", "test": "primary screen, population patch clamp on CHO cells stably expressing hERG", "units": {"hERG current change (%, negative = inhibition) at 10uM": "%"}, "values": [{"smiles": "CCn1c(=S)[nH]c2cc(Cl)ccc21", "hERG current change (%, negative = inhibition) at 10uM": 11.5}, {"smiles": "COc1ccc(C(=O)OCC(=O)N2CCCC2=O)c(OC)c1", "hERG current change (%, negative = inhibition) at 10uM": 22.2}, {"smiles": "CCCNc1c(NS(=O)(=O)c2ccc(C(C)(C)C)cc2)c(=O)oc2ccccc12", "hERG current change (%, negative = inhibition) at 10uM": 10.8}, {"smiles": "Cc1cccc(OCC2CCCN(Cc3nc(C4CC4)no3)C2)c1", "note": "(stereo not drawn)", "hERG current change (%, negative = inhibition) at 10uM": 3.87}, {"smiles": "OC(CNCCc1ccc(Cl)cc1)COCc1ccco1", "note": "(stereo not drawn)", "hERG current change (%, negative = inhibition) at 10uM": -44.6}, {"smiles": "CCc1ccc(CN/C=C/C(=O)c2ccc(Br)cc2)cc1", "hERG current change (%, negative = inhibition) at 10uM": -1.34}, {"smiles": "Cc1ccc(-c2cc(-c3ccc(F)cc3)nc(N)c2C#N)o1", "hERG current change (%, negative = inhibition) at 10uM": 9.35}, {"smiles": "CCOC(=O)c1cnc(SCC(=O)N2CCC(C(N)=O)CC2)nc1N", "hERG current change (%, negative = inhibition) at 10uM": 12.7}, {"smiles": "Cc1ccnc(NS(=O)(=O)c2cnc(Cl)c(Br)c2)c1", "hERG current change (%, negative = inhibition) at 10uM": -9.39}, {"smiles": "O=C(CSc1ncn[nH]1)NC1CCCc2ccccc21", "note": "(stereo not drawn)", "hERG current change (%, negative = inhibition) at 10uM": 20}, {"smiles": "COc1ccc(CCNC(=O)CSc2nnc(-c3cccc(F)c3)o2)cc1OC", "hERG current change (%, negative = inhibition) at 10uM": 11.7}, {"smiles": "COC(=O)c1cc(S(=O)(=O)N2CCCC(C)C2)c[nH]1", "note": "(stereo not drawn)", "hERG current change (%, negative = inhibition) at 10uM": 2.71}, {"smiles": "CS(=O)(=O)N(CC(=O)Nc1ccc(Cl)c(Cl)c1)C1CCCCC1", "hERG current change (%, negative = inhibition) at 10uM": -16.7}, {"smiles": "O=C(Nc1cccnc1)c1ccc(COc2cc(Cl)ccc2Cl)o1", "hERG current change (%, negative = inhibition) at 10uM": 108}, {"smiles": "Cc1ccc(N2CC(C(=O)N3CCC(c4nc5ccccc5[nH]4)CC3)CC2=O)cc1C", "note": "(stereo not drawn)", "hERG current change (%, negative = inhibition) at 10uM": -46.2}, {"smiles": "CNCCOCC(O)CSc1ccccc1", "note": "(stereo not drawn)", "hERG current change (%, negative = inhibition) at 10uM": 12.5}, {"smiles": "COc1cc(Cl)c(C)cc1NC(=O)COC(=O)C(NS(=O)(=O)c1ccc(Cl)cc1)C(C)O", "note": "(stereo not drawn)", "hERG current change (%, negative = inhibition) at 10uM": 3.83}, {"smiles": "COc1ccc(-c2cc(C(F)F)n3ncc(C(=O)NCC4CCCO4)c3n2)cc1", "note": "(stereo not drawn)", "hERG current change (%, negative = inhibition) at 10uM": 0.12}, {"smiles": "COC(=O)c1sccc1NC(=O)c1ccc(Br)s1", "hERG current change (%, negative = inhibition) at 10uM": 17}, {"smiles": "Cc1ccc(NC(=O)N2CCC(O)(c3ccc(Cl)cc3)CC2)cc1", "hERG current change (%, negative = inhibition) at 10uM": -13.8}, {"smiles": "O=C([C@@H]1CCCN1C(=O)c1cccs1)N1CCN(S(=O)(=O)c2ccccc2F)CC1", "hERG current change (%, negative = inhibition) at 10uM": -18.8}, {"smiles": "CCN(CC)c1nc(N)c(C#N)c(CC#N)c1C#N", "hERG current change (%, negative = inhibition) at 10uM": -9.69}, {"smiles": "O=C(NCCc1c[nH]c2ccccc12)c1ccc2c(c1)OCO2", "hERG current change (%, negative = inhibition) at 10uM": 7.05}, {"smiles": "COc1ccc(CC(=O)NCc2ccco2)cc1OC", "hERG current change (%, negative = inhibition) at 10uM": 13.4}, {"smiles": "CC1CCN(C(=O)c2ccccc2SCC(=O)NCC2CCCCC2)CC1", "hERG current change (%, negative = inhibition) at 10uM": -22.2}, {"smiles": "COc1cc(-c2c(-c3ccsc3)sc3ccccc23)cc(OC)c1OC", "hERG current change (%, negative = inhibition) at 10uM": 4.46}, {"smiles": "COC(=O)c1sc(NC(=O)COc2ccc(OC)cc2)nc1C", "hERG current change (%, negative = inhibition) at 10uM": 6.37}, {"smiles": "COc1ccc(C(=O)Nc2ccc(NC(=O)c3ccco3)cc2)cc1", "hERG current change (%, negative = inhibition) at 10uM": 11.6}, {"smiles": "CCN1CCc2c(OCC(=O)N3CCCCC3)cccc2C1=O", "hERG current change (%, negative = inhibition) at 10uM": 5.33}, {"smiles": "CCOC(=O)C1=C(c2ccccc2)NC(=O)NC1c1cc(Cl)c(O)c(OC)c1", "note": "(stereo not drawn)", "hERG current change (%, negative = inhibition) at 10uM": -7.16}, {"smiles": "Cc1cc(C)c2nc(C)cc(N/N=C/c3ccc(O)cc3)c2c1", "hERG current change (%, negative = inhibition) at 10uM": -33.7}, {"smiles": "c1ccc(NC2=Nc3ccccc3CC2)cc1", "hERG current change (%, negative = inhibition) at 10uM": -12.7}, {"smiles": "CN1CCN(/N=C/c2cccc(Cl)c2Cl)CC1.Cl", "hERG current change (%, negative = inhibition) at 10uM": 6.09}, {"smiles": "O=C(COc1ccc(Cl)cc1Br)Nc1cccc(S(=O)(=O)N2CCCC2)c1", "hERG current change (%, negative = inhibition) at 10uM": 8.97}, {"smiles": "Cc1nc(-c2ccc(S(=O)(=O)N3CCCN(CCc4ccccc4)CC3)s2)cs1", "hERG current change (%, negative = inhibition) at 10uM": -10.6}, {"smiles": "COc1cccc(-n2c(O)c(C=Nc3c(C)n(C)n(-c4ccccc4)c3=O)c(=O)[nH]c2=O)c1", "hERG current change (%, negative = inhibition) at 10uM": 24.1}, {"smiles": "COc1cc2c(cc1OC)C(c1ccc([N+](=O)[O-])cc1)NC(=O)C2", "note": "(stereo not drawn)", "hERG current change (%, negative = inhibition) at 10uM": -9.96}, {"smiles": "O=C(C1CCN(S(=O)(=O)N2CCC3(CC2)OCCO3)CC1)N1CCC(Cc2ccccc2)CC1", "hERG current change (%, negative = inhibition) at 10uM": -44.9}, {"smiles": "CCOC(=O)C1CCN(C(=O)c2[nH]c3ccc(OC)cc3c2C)CC1", "hERG current change (%, negative = inhibition) at 10uM": 1.55}, {"smiles": "CC(OC(=O)c1ccc(-n2cnnn2)cc1)C(=O)Nc1ccc(F)c(F)c1F", "note": "(stereo not drawn)", "hERG current change (%, negative = inhibition) at 10uM": -8.65}, {"smiles": "O=C(CC1C(=O)NCCN1Cc1ccc(-c2ccccc2)cc1)NCCOc1cccnc1", "note": "(stereo not drawn)", "hERG current change (%, negative = inhibition) at 10uM": -25.9}, {"smiles": "COc1ccc(OC)c(CCNC(=O)CS(=O)(=O)Cc2nc(-c3ccccc3C)oc2C)c1", "hERG current change (%, negative = inhibition) at 10uM": -11.4}, {"smiles": "O=S(=O)(c1ccccc1F)N1CCC(Oc2ccc(-n3cnnn3)cc2)CC1", "hERG current change (%, negative = inhibition) at 10uM": -44.5}, {"smiles": "O=C(Oc1ccc(-c2ccccc2)cc1)N1CCOCC1", "hERG current change (%, negative = inhibition) at 10uM": 5.6}, {"smiles": "COC(C(=O)Nc1ccnn1C1CCN(Cc2cccc(C)n2)CC1)c1ccccc1", "note": "(stereo not drawn)", "hERG current change (%, negative = inhibition) at 10uM": 14.6}, {"smiles": "CCn1cnc2c(NCCc3cccnc3)nc(C#N)nc21", "hERG current change (%, negative = inhibition) at 10uM": 16.5}, {"smiles": "COc1ccc(-n2ccnc(SCC(=O)NC3CCCC3)c2=O)cc1OC", "hERG current change (%, negative = inhibition) at 10uM": 21.2}, {"smiles": "Cc1ccccc1C(=O)NC(=S)Nc1ccccc1N1CCCC1", "hERG current change (%, negative = inhibition) at 10uM": -2.78}, {"smiles": "Cc1occc1-c1nnc(SCC(=O)Nc2nc3ccccc3s2)o1", "hERG current change (%, negative = inhibition) at 10uM": 5.03}, {"smiles": "CN1CCN(C(=S)Nc2cccc(S(=O)(=O)N(C)C)c2)CC1", "hERG current change (%, negative = inhibition) at 10uM": 21.4}, {"smiles": "CN(C)C(=O)N1CCC(C(=O)NCc2ccccc2)CC1", "hERG current change (%, negative = inhibition) at 10uM": 8.76}, {"smiles": "COc1ccc(-c2cc(=O)oc3cc(OC(C)C(=O)NC(Cc4c[nH]c5ccc(O)cc45)C(=O)O)ccc23)cc1", "note": "(stereo not drawn)", "hERG current change (%, negative = inhibition) at 10uM": 4.07}, {"smiles": "O=C(CSc1nccn1-c1ccccc1)N1CCc2ccccc21", "hERG current change (%, negative = inhibition) at 10uM": -24.8}, {"smiles": "O=S(=O)(c1cccc2cccc(Cl)c12)N1CCCC1", "hERG current change (%, negative = inhibition) at 10uM": -2.56}, {"smiles": "CC[n+]1c(/C=C/C=C/N(C(C)=O)c2ccccc2)sc2ccccc21.[I-]", "hERG current change (%, negative = inhibition) at 10uM": -69.8}, {"smiles": "CCOc1ccc(NC(=O)NNC(=O)c2cc3ccccc3cc2O)cc1", "hERG current change (%, negative = inhibition) at 10uM": 11.2}, {"smiles": "CCCCn1c(N)c(N(CCOC)C(=O)c2ccc(Cl)c(S(=O)(=O)N3CCCC3)c2)c(=O)[nH]c1=O", "hERG current change (%, negative = inhibition) at 10uM": 14.9}]}]}
